Source: the supplement of paper PMC11876631
± gives the standard deviation of the averaged measurements. Laboratory Escherichia coli strains with one amino-acid change in an essential protein, pooled on minimal glucose agar with carbenicillin or gentamicin at twice the control MIC (plus kanamycin and chloramphenicol for the plasmids), 48 h. Fold change of barcode share against drug-free plates; higher = less susceptible. Active = above 20 in both replicates (the paper's putatively resistant). '<' = one read or none on drug, '>' = one read or none on a drug-free plate. Shares are relative, so most strains fall below 1 when a few take over. Listed are strains with at least 15 reads on both drug-free plates, and hits; most hits rest on fewer reference reads. Replicate rank correlation about 0.5. Edits are read from barcodes.

B1: pgsA; numbered along this chain (parent)
chain: MQFNIPTLLTLFRVILIPFFVLVFYLPVTWSPFAAALIFCVAAVTDWFDGFLARRWNQSTRFGAFLDPVADKVLVAIAMVLVTEHYHSWWVTLPAATMIAREIIISALREWMAELGKRSSVAVSWIGKVKTTAQMVALAWLLWRPNIWVEYAGIALFFVAAVLTLWSMLQYLSAARADLLDQ

Variants of: B1
Assay: barcode share on antibiotic plates over drug-free plates; higher = less susceptible
Details: with Escherichia coli (laboratory strain); antibiotic: carbenicillin; 2× MIC (3.1 µg/mL)
Method: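 A pool of E. coli strains, each edited to carry one amino-acid change in an essential protein, was grown for 48 h on minimal glucose agar with or without antibiotic; strain barcodes were sequenced; mean of two replicates.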

Variant | fold change of barcode share
MQFNIPTLLTLFRVILIPFFVLVFYLPVTWSPFAAAQIFCVAAVTDWFDGFLARRWNQSTRFGAFLDPVADKVLVAIAMVLVTEHYHSWWVTLPAATMIAREIIISALREWMAELGKRSSVAVSWIGKVKTTAQMVALAWLLWRPNIWVEYAGIALFFVAAVLTLWSMLQYLSAARADLLDQ | 0.8538 ± 0.0055
MQFNIPTLLTLFRVILIPFFVLVFYLPVTWSPFAAAAIFCVAAVTDWFDGFLARRWNQSTRFGAFLDPVADKVLVAIAMVLVTEHYHSWWVTLPAATMIAREIIISALREWMAELGKRSSVAVSWIGKVKTTAQMVALAWLLWRPNIWVEYAGIALFFVAAVLTLWSMLQYLSAARADLLDQ | 0.262 ± 0.083
MQFNIPTLLTLFRVILIPFFVLVFYLPVTWSPFAAAPIFCVAAVTDWFDGFLARRWNQSTRFGAFLDPVADKVLVAIAMVLVTEHYHSWWVTLPAATMIAREIIISALREWMAELGKRSSVAVSWIGKVKTTAQMVALAWLLWRPNIWVEYAGIALFFVAAVLTLWSMLQYLSAARADLLDQ | 0.166 ± 0.024
MQFNIPTLLTLFRVILIPFFVLVFYLPVTWSPFAAADIFCVAAVTDWFDGFLARRWNQSTRFGAFLDPVADKVLVAIAMVLVTEHYHSWWVTLPAATMIAREIIISALREWMAELGKRSSVAVSWIGKVKTTAQMVALAWLLWRPNIWVEYAGIALFFVAAVLTLWSMLQYLSAARADLLDQ | 0.319 ± 0.1
MQFNIPTLLTLFRVILIPFFVLVFYLPVTWSPFAAAWIFCVAAVTDWFDGFLARRWNQSTRFGAFLDPVADKVLVAIAMVLVTEHYHSWWVTLPAATMIAREIIISALREWMAELGKRSSVAVSWIGKVKTTAQMVALAWLLWRPNIWVEYAGIALFFVAAVLTLWSMLQYLSAARADLLDQ | 0.23 ± 0.1
MQFNIPTLLTLFRVILIPFFVLVFYLPVTWSPFAAALPFCVAAVTDWFDGFLARRWNQSTRFGAFLDPVADKVLVAIAMVLVTEHYHSWWVTLPAATMIAREIIISALREWMAELGKRSSVAVSWIGKVKTTAQMVALAWLLWRPNIWVEYAGIALFFVAAVLTLWSMLQYLSAARADLLDQ | 0.224 ± 0.082
MQFNIPTLLTLFRVILIPFFVLVFYLPVTWSPFAAALWFCVAAVTDWFDGFLARRWNQSTRFGAFLDPVADKVLVAIAMVLVTEHYHSWWVTLPAATMIAREIIISALREWMAELGKRSSVAVSWIGKVKTTAQMVALAWLLWRPNIWVEYAGIALFFVAAVLTLWSMLQYLSAARADLLDQ | 0.401 ± 0.13
MQFNIPTLLTLFRVILIPFFVLVFYLPVTWSPFAAALAFCVAAVTDWFDGFLARRWNQSTRFGAFLDPVADKVLVAIAMVLVTEHYHSWWVTLPAATMIAREIIISALREWMAELGKRSSVAVSWIGKVKTTAQMVALAWLLWRPNIWVEYAGIALFFVAAVLTLWSMLQYLSAARADLLDQ | 0.287 ± 0.019

Same assay, conditions: with Escherichia coli (laboratory strain); antibiotic: gentamicin; 2× MIC (MIC 0.45 µg/mL)

Variant | fold change of barcode share
MQFNIPTLLTLFRVILIPFFVLVFYLPVTWSPFAAAQIFCVAAVTDWFDGFLARRWNQSTRFGAFLDPVADKVLVAIAMVLVTEHYHSWWVTLPAATMIAREIIISALREWMAELGKRSSVAVSWIGKVKTTAQMVALAWLLWRPNIWVEYAGIALFFVAAVLTLWSMLQYLSAARADLLDQ | < 0.00641
MQFNIPTLLTLFRVILIPFFVLVFYLPVTWSPFAAAAIFCVAAVTDWFDGFLARRWNQSTRFGAFLDPVADKVLVAIAMVLVTEHYHSWWVTLPAATMIAREIIISALREWMAELGKRSSVAVSWIGKVKTTAQMVALAWLLWRPNIWVEYAGIALFFVAAVLTLWSMLQYLSAARADLLDQ | < 0.00784
MQFNIPTLLTLFRVILIPFFVLVFYLPVTWSPFAAAPIFCVAAVTDWFDGFLARRWNQSTRFGAFLDPVADKVLVAIAMVLVTEHYHSWWVTLPAATMIAREIIISALREWMAELGKRSSVAVSWIGKVKTTAQMVALAWLLWRPNIWVEYAGIALFFVAAVLTLWSMLQYLSAARADLLDQ | 16.3 ± 18
MQFNIPTLLTLFRVILIPFFVLVFYLPVTWSPFAAADIFCVAAVTDWFDGFLARRWNQSTRFGAFLDPVADKVLVAIAMVLVTEHYHSWWVTLPAATMIAREIIISALREWMAELGKRSSVAVSWIGKVKTTAQMVALAWLLWRPNIWVEYAGIALFFVAAVLTLWSMLQYLSAARADLLDQ | 2.5 ± 1.2
MQFNIPTLLTLFRVILIPFFVLVFYLPVTWSPFAAAWIFCVAAVTDWFDGFLARRWNQSTRFGAFLDPVADKVLVAIAMVLVTEHYHSWWVTLPAATMIAREIIISALREWMAELGKRSSVAVSWIGKVKTTAQMVALAWLLWRPNIWVEYAGIALFFVAAVLTLWSMLQYLSAARADLLDQ | 0.00638 ± 0.00099
MQFNIPTLLTLFRVILIPFFVLVFYLPVTWSPFAAALPFCVAAVTDWFDGFLARRWNQSTRFGAFLDPVADKVLVAIAMVLVTEHYHSWWVTLPAATMIAREIIISALREWMAELGKRSSVAVSWIGKVKTTAQMVALAWLLWRPNIWVEYAGIALFFVAAVLTLWSMLQYLSAARADLLDQ | 784 [active]
MQFNIPTLLTLFRVILIPFFVLVFYLPVTWSPFAAALWFCVAAVTDWFDGFLARRWNQSTRFGAFLDPVADKVLVAIAMVLVTEHYHSWWVTLPAATMIAREIIISALREWMAELGKRSSVAVSWIGKVKTTAQMVALAWLLWRPNIWVEYAGIALFFVAAVLTLWSMLQYLSAARADLLDQ | 0.707 ± 0.71
MQFNIPTLLTLFRVILIPFFVLVFYLPVTWSPFAAALAFCVAAVTDWFDGFLARRWNQSTRFGAFLDPVADKVLVAIAMVLVTEHYHSWWVTLPAATMIAREIIISALREWMAELGKRSSVAVSWIGKVKTTAQMVALAWLLWRPNIWVEYAGIALFFVAAVLTLWSMLQYLSAARADLLDQ | 0.0171 ± 0.0087
